57 sequences from the supplement of paper PMC11417369 can be followed below.

The other results are listed elsewhere or left out.

This assay deals with PfAP2-HC AP2 domain (GST-tagged). The assay can be described thus: gcPBM binding intensity (ln(normalized median fluorescence intensity)); higher = stronger DNA binding. An outline of the steps: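 Each value is the highest Masliner-normalised natural-log median intensity across replicate spots of either orientation of a probe. The probes were primer-extended double-stranded 36-bp intergenic genomic sequences on an Agilent 4 × 180k array, alongside negative controls, exposed for 1 h to GST-tagged P. falciparum DNA-binding domains expressed in E. coli. Bound protein was picked up with Alexa488 anti-GST antibody and scanned at 488 nm.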
In the case of “TCCATATATATTATGTGTACATATTATATATATAAA [XGTACX_site7525]”, the “gcPBM binding intensity (ln)” value was 9.55.

As for “AGTAAAAGAAAGCACACACACATGTATATATGTATG [CACACA_site3858]”, the “gcPBM binding intensity (ln)” value came out at 11. The value for “CAATATAAAAAACACACGCACACAAAAAAAAAAAAA [CACACA_site3521]” was 10.3; that for “ATATATAAAATATATTGTACATTAACATATATATTT [XGTACX_site2055]” was 9.57. On to “GTAATATTATATAGTTGTACTTTTTTTTTATTATAT [XGTACX_site483]”, for which the “gcPBM binding intensity (ln)” value turned out to be 9.73.

As to “AAACTTGACGGACACACACACACATATATAAAAAAA [CACACA_site4577]”, the “gcPBM binding intensity (ln)” value was found to be 11.6. The result for ATATATAAATAAATAGTGCATTTTAATATTTAACGT reads 9.73; that for “TTTCTTTATTTTTTTTTTTTTTTTTTTCCTTTTTTT [TGCATGCA_negctrl_site231]”, 9.35; that for “TGTTATATTTGTGCGTGTACACATTTGAAAAAATAT [XGTACX_site3796]”, 9.64. The result for “AACGGGGCCAAGAAATATAAATAATCAAAACAAAAA [XGTACX_negctrl_site320]” reads 9.38; that for “TGTGCACGCATATACACACACAAATACAATGATAAA [CACACA_site6656]”, 10.3; that for “AATATCATCAAACGCACACATACATAAATATATTAT [CACACA_site2174]”, 10.5.

For “GTTCTTTCAAGTTATACACACCAAAAAAAAAAAAAA [CACACA_site7435]”, the “gcPBM binding intensity (ln)” value turned out to be 9.52. For the sequence “TAGTACACACAAAATACATGCGGGGTTTAATATTTA [TGCATGCA_site576]”, the “gcPBM binding intensity (ln)” value is 9.89.

On to “AATTCTTTCATATATTGTACGTATTCCCATAAAATA [XGTACX_site5923]”, for which the “gcPBM binding intensity (ln)” value stood at 9.63. The value for “AGTGTGTGTGCGTATAGTACATATACATATATACAC [XGTACX_site6882]” was 10.8; that for “AAATGAATAAAATTTATTTATAAAAGAAAAATCACA [GTGCAC_negctrl_site225]” was 9.57.

With “ATAATACAAAATACATGTACAAATATTTTTCATATT [XGTACX_site1721]”, the “gcPBM binding intensity (ln)” value was determined as 9.75. The result for “TCAATAGTTACTAGTACATGCAAAAATAAACCTATA [TGCATGCA_site85]” reads 9.64; that for “CAAATATATATGTTCACACATATAATTATTGTGAAA [CACACA_site4190]”, 9.62; that for “TTGCCATTAATTTATACACACACATTTTAATTTTTT [CACACA_site8150]”, 10. The result for “TTGTCATTTATAAAATGTACGTGTGTATATATTTAA [XGTACX_site5000]” reads 9.6; that for “TTTTAAAGCATATCATATAAAGAACATGACATAGGA [CACACA_negctrl_site630]”, 9.42. The value for “TTATATTTATGATACACACACGTATATTCACATACA [CACACA_site6354]” was 9.9.

As to “AACATTTTTAAATATATAAAAATATATATATATATA [XGTACX_negctrl_site551]”, the “gcPBM binding intensity (ln)” value was found to be 9.39. Consider “GTATGTTTAATTTTAGTGCAATTATAAATATTTTAA [GTGCAC_site9531]”, for which the “gcPBM binding intensity (ln)” value came to 9.38.

For the sequence “AAGAAAATAAAATAAAAAAAAAAATAAAAAAAATAA [TGCATGCA_negctrl_site516]”, the “gcPBM binding intensity (ln)” value came out at 9.51. As for “AAATTGTCTGCATATAGTACATAAATATATTAATAT [XGTACX_site4557]”, the “gcPBM binding intensity (ln)” value was determined as 9.61. Turning to ATATATATATATATAGTGCATAATGTTTTAATAGAT, the “gcPBM binding intensity (ln)” value amounted to 9.82.

On to “TCTTTATATATATATATATGTGTGAATGTTAAGTAT [XGTACX_negctrl_site135]”, for which the “gcPBM binding intensity (ln)” value was found to be 9.59. For the sequence “ATTTTTTTTTTTTCCTTACACACATATTTCATTTTA [CACACA_site748]”, the “gcPBM binding intensity (ln)” value turned out to be 10.3. In the case of “CTATTAAAAAAATTATGTACACAACGTCTCTATATA [XGTACX_site4813]”, the “gcPBM binding intensity (ln)” value was 9.64. The value for “TACATTTTTATTTTTACACACATATATATATATATA [CACACA_site1021]” was 9.87; that for “GAGTTTATTCTTTTTATACACACCTTATTTGATTAA [CACACA_site735]” was 9.83; that for “TATAATATATTTATATGTACTTATTTATTTATATAT [XGTACX_site6519]” was 9.67. For the sequence “TATTATTTTATGAGACATAAAAAAAAAAAAAAAAAA [CACACA_negctrl_site1534]”, the “gcPBM binding intensity (ln)” value was 8.79. The result for “TTAAGTATTTTACGTACACACTTATAAATGTACAGG [CACACA_site6012]” reads 9.55. The value for “AAGTATTATTATAAGACACACATGTATATAAGTATA [CACACA_site1479]” was 10.1. The result for “TACAAAAGTTAAACATGTACTTAATTATATGTTTTT [XGTACX_site2852]” reads 9.59; that for “GAATATATAAGAACAAATATGGCTTAGAAAAAAAAA [TGCATGCA_negctrl_site451]”, 9.55; that for “ATAAAAATGGATGAATATAAAAAAAAAAAAATATAT [CACACA_negctrl_site182]”, 9.61.

For “TATATATATGGGTTTACACACAATAATGAATTAAAA [CACACA_site915]”, the “gcPBM binding intensity (ln)” value was 9.88. The result for “CCCATGCATTTTTGCACACACATATATTTATAAATA [CACACA_site6785]” reads 9.93; that for “CCCACAGACGGACACACACACACATATATATATATA [CACACA_site4352]”, 11.1; that for “TCAAGTTTATATTAACTATTTATGAAAAAAAAAAGA [CACACA_negctrl_site902]”, 9.38. “TTACACTAAATATGTTCACACATTTTTTCCATCATA [CACACA_site4647]”: the “gcPBM binding intensity (ln)” value came to 9.74. Consider “CTAAAAATTTTAATTGCACACCACGTTGGACTATTT [CACACA_site1489]”, for which the “gcPBM binding intensity (ln)” value was determined as 9.77.

TATAAGGCAATAATAGTGCACTAAGATATATAATGA: the “gcPBM binding intensity (ln)” value amounted to 9.94. The result for “ATATATTACAAATGGAGTACTAAAAATATTCTATAT [XGTACX_site6669]” reads 9.67.

In the case of “GATTATTTAAAATATACATGCGCGCACATATGCATA [TGCATGCA_site630]”, the “gcPBM binding intensity (ln)” value came to 9.55.

Regarding “TGCATTTTCCTATTTGCATGCAATTAAAATATAGAA [TGCATGCA_site862]”, the “gcPBM binding intensity (ln)” value is 9.32. The result for ATGTTTTAATGAGGTTTGCACTATATTTTAATGAAC reads 9.64. The value for “AACATATATACAGTAACACACACAAAAAAATATGAA [CACACA_site9323]” was 10.4; that for “AAAAAACAAAAACACACACACACATATATATATATA [CACACA_site3654]” was 10.9; that for “ATCACTAACATGTGTTGTACATAAAATTTGTTTGTT [XGTACX_site2207]” was 9.74. The result for “TTAACTTTTATATAGTGTACAAATAAATGCATACAG [XGTACX_site5958]” reads 9.56; that for “TTATTATTTAACATGTGGACACAAAAATTTAAGGGT [XGTACX_site4638]”, 9.61.
